Laboratory results from PubChem BioAssay AID504332 (National Center for Advancing Translational Sciences (NCATS), 2011).
Among all 350,000 compounds or so, about 31,000 (8.9%) were called active. Inconclusive results, whose numbers are uncertain, are shown with a selection of clear calls. Calls follow the shape of the dose curve; as a rule, active = well fitted inhibition curve with a large enough effect; inconclusive = small, poorly fitted or top-dose-only effect; inactive = no such curve, though single readings can be large or run the other way. Potencies of inconclusive entries are doubtful fits and often do not repeat.

Target: Histone-lysine N-methyltransferase EHMT2 (Homo sapiens) (UniProt Q96KQ7)
Sequence of UniProt Q96KQ7 (Q96KQ7 whole entry, looked up): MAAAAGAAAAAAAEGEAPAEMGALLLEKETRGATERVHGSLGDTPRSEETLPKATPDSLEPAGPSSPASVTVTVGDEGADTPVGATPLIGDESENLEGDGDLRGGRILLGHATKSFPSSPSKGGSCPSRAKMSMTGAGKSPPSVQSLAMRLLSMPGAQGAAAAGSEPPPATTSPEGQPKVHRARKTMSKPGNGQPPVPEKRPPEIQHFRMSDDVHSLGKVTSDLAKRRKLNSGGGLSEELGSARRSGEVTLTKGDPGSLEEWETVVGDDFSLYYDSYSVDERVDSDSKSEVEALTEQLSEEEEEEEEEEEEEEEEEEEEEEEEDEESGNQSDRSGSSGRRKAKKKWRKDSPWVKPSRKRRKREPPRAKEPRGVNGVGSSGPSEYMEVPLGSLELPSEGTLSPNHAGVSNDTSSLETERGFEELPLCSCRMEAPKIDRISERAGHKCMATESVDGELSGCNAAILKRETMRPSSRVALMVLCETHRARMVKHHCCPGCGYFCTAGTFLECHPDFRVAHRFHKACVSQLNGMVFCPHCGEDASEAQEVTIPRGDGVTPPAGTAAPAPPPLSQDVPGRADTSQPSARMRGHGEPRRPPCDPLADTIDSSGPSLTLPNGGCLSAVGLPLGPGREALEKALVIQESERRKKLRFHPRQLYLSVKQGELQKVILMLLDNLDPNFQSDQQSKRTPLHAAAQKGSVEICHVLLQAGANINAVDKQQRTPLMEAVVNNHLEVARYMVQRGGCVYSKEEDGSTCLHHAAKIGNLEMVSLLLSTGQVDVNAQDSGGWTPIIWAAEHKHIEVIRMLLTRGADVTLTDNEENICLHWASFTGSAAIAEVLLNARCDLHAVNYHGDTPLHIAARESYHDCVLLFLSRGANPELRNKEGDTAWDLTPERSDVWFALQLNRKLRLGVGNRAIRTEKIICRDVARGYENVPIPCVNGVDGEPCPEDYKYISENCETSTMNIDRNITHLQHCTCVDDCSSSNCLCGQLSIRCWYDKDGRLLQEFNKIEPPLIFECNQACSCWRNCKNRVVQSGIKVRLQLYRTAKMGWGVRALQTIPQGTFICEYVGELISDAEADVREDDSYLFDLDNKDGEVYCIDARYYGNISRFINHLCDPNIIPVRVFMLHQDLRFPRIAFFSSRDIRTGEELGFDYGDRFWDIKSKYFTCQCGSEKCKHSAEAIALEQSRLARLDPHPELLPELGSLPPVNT
Experiment: qHTS Assay for Inhibitors of Histone Lysine Methyltransferase G9a; also: nearly all actives have a fitted effect of over 75% in size
Conditions: G9a H3K9 monomethylation, AlphaScreen, 2 h; activity, negative = inhibition: at 59 µM (top of the series) unless noted
Summary of the method: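 AlphaScreen detection with an anti-monomethyl H3K9 antibody quantified product after a 2 h room-temperature reaction containing 500 nM biotinylated H3K9 peptide, 20 µM SAM and 20 nM enzyme, which had been preincubated 15 min with compound.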
% is scaled to controls: 0 for no effect and ±100 for the full control effect; potency is read from the fitted curve at half-maximal effect; tags tell the direction and shape of the fitted curve.

Compound | Potency | activity, negative = inhibition
CC1CCCCC1NS(=O)(=O)c1ccc(S(=O)(=O)NCc2ccncc2)cc1 (centres undefined) | active: 17.8 µM | 
COc1ccc(/C=C2/CC/C(=C\c3ccc(OC)c(OC)c3OC)C2=O)c(OC)c1OC | active: 7.94 µM | 
COc1ccc(CNC(=O)Cn2c(=O)ccc3cc(S(=O)(=O)N4CCCC4)ccc32)cc1 |  | inactive: 5.97%
CCC[C@@H](NS(=O)(=O)c1ccc(C)cc1)C(=O)Oc1ccc2c3c(c(=O)oc2c1)CCC3 | inconclusive: 50.1 µM [inhibitor, partial curve, poor fit] | 
Nc1nc(SCc2ccccc2Cl)ns1 | inconclusive: 39.8 µM [inhibitor, single point] | 
COc1cccc2cc(C(C)N(CCCN3CCOCC3)C(=S)Nc3cccc(C)c3)oc12 (centres undefined) | inconclusive: 39.8 µM [inhibitor, full curve] | 
CC(C)(C)c1cc(CN(CCO)CCO)cc(C(C)(C)C)c1O | inconclusive: 1.58 µM [inhibitor, full curve, poor fit] | 
COc1ccc(OC)c(CCNC(=O)c2cnn(-c3ccc(C)cc3C)c2C2CCN(C(=O)OC(C)(C)C)CC2)c1 | inconclusive: 28.2 µM [inhibitor, single point] | 
COc1cccc2sc(NNC(=O)c3nc4ccccc4s3)nc12 | active: 12.6 µM | 
COCCNC(=O)C1(S(=O)(=O)c2ccccc2)CC=CC1 |  | inactive: -7.77% [at 102 µM]
COc1ccc(CCNC(=O)CN2CCN(Cc3ccc(F)cc3)C2=O)cc1OC | inconclusive: 89.1 µM [inhibitor, single point] | 
COc1ccccc1CNC(=O)c1cnc(SC)nc1C |  | inactive: -0.982%
CCOC(=O)CN1C(=O)C(=O)N(Cc2ccccc2F)C1=O | inconclusive: 14.1 µM [inhibitor, partial curve, poor fit] | 
Cc1ccc(-c2ccc(C(=O)NCCCNC(=O)c3cnccn3)o2)cc1Cl | inconclusive: 39.8 µM [inhibitor, single point] | 
CC(C)N(Cc1ccccc1)C(=O)C1CCCN(c2ncnc3onc(-c4ccc(F)cc4)c23)C1 (centres undefined) |  | inactive: -24.2%
COc1ccc(C(=O)CCNc2ccc3c(c2)OCCO3)cc1 | active: 3.16 µM | 
O=c1/c(=C/c2ccc(CNS(=O)(=O)c3ccccc3)o2)sc2n1CCN=2 | active: 39.8 µM | 
COCCCNC(=O)C(C#N)c1nc2ccccc2nc1N1CCCC1 (centres undefined) | active: 39.8 µM | 
CCCCn1c(SCC(=O)Nc2cc(C)on2)nc2cc(S(N)(=O)=O)ccc21 | inconclusive: 0.316 µM [inhibitor, full curve, poor fit] | 
CC(=O)Nc1ccc(NC(=O)C2(c3cccs3)CCOCC2)cc1 |  | inactive: 7.4%
Cc1ccc(S(=O)(=O)NNc2nc3ccccc3nc2C(F)(F)F)cc1 | active: 1.41 µM | 
Oc1ccccc1-c1n[nH]c(=S)n1Cc1ccco1 | inconclusive: 0.794 µM [inhibitor, full curve, poor fit] | 
Cc1cc(NCc2ccco2)n2c(nc3ccccc32)c1C#N |  | inactive: 14.2% [at 102 µM]

Compound | Potency | activity, negative = inhibition
Cc1cc(NC(=S)NC(=O)c2ccco2)c2ccccc2n1 | inconclusive: 50.1 µM [inhibitor, partial curve, poor fit] | 
O=C(COC(=O)c1ccccc1Sc1ccc(C(F)(F)F)cc1[N+](=O)[O-])NC(=O)NC1CCCC1 | inconclusive: 25.1 µM [inhibitor, single point] | 
Cc1ccccc1-c1nc(CN2CCSCC2)c(C)o1 | inconclusive: 8.91 µM [inhibitor, full curve] | 
Cc1nn(C(=O)Cn2cc([N+](=O)[O-])cn2)c(C)c1Cl | inconclusive: 79.4 µM [inhibitor, partial curve, poor fit] | 
O=C(O)c1cccnc1Sc1ccc(Br)cc1 | inconclusive: 79.4 µM [inhibitor, single point] | 
CCCCn1c(SCC(=O)NCc2cccs2)nc2c1c(=O)n(C)c(=O)n2C | inconclusive: 25.1 µM [inhibitor, single point] | 
CN(C)c1ccc(C(CNC(=O)c2ccccc2F)c2c[nH]c3ccccc23)cc1 (centres undefined) | inconclusive: 5.62 µM [inhibitor, full curve, poor fit] | 
O=C(CSc1nc(O)c(Cc2ccccc2)c(=O)[nH]1)Nc1nc2c(s1)CCCC2 | inconclusive: 39.8 µM [inhibitor, partial curve, poor fit] | 
Cc1ccc2nc(/C(C#N)=C\c3ccc(N4CCOCC4)o3)[nH]c2c1 | active: 10 µM | 
CCSc1nc2sc3c(c2c(=O)n1-c1ccccc1C)CCN(C)C3 | inconclusive: 56.2 µM [inhibitor, partial curve, poor fit] | 
COc1ccccc1CNC(=O)CNCC1CCCO1 (centres undefined) | active: 10 µM | 
CCOC(=O)c1ccc(N2C(=O)c3[nH]nc(-c4ccc(OCC)cc4)c3C2c2cccs2)cc1 (centres undefined) |  | inactive: -7.75%
O=C(/C=C/c1ccco1)N(Cc1ccccc1F)C1CCS(=O)(=O)C1 (centres undefined) | inconclusive: 79.4 µM [inhibitor, partial curve, poor fit] | 
COc1ccc(NC(=O)c2sc3nc4c(c(-c5ccc(OC)cc5)c3c2N)C(=O)CC(C)(C)C4)cc1 |  | inactive: -25.4%
CCOC(=O)c1c(-c2ccc(-c3ccccc3)cc2)csc1NC(=O)CNCCN(C)C | active: 50.1 µM | 
COc1ccc(OC)c(NC(=O)CCN2CCCCC2)c1 | inconclusive: 22.4 µM [inhibitor, single point] | 
O=C(c1ccccc1)C(Sc1ncn[nH]1)c1ccccc1 (centres undefined) | active: 5.62 µM | 
Cc1cc2n(n1)CCC(=O)N2Cc1ccc(C(=O)Nc2ccc(F)cc2F)cc1 |  | inactive: -28.6%
O/C(=C\c1nc2ccccc2[nH]1)c1cccs1 | active: 25.1 µM | 
CCCC(=O)N(Cc1cc(=O)[nH]c2ccccc12)c1cccc(C)c1 | active: 28.2 µM | 
CCOc1cccc2c1Oc1nc(-c3ccccc3)nc(SCC(=O)Nc3ccc(F)cc3)c1C2 | inconclusive: 39.8 µM [inhibitor, partial curve, poor fit] | 
O=C(N/N=C/c1ccccn1)C(O)c1ccccc1 (centres undefined) | active: 0.708 µM | 
Cc1ccc(C(=O)Nc2ccccc2C(=O)NCc2ccco2)cc1S(=O)(=O)N1CCCCC1 | active: 15.8 µM | 

Compound | Potency | activity, negative = inhibition
CC(C)N1CCC(n2nccc2NC(=O)c2ccc3c(c2)OCO3)CC1 | inconclusive: 79.4 µM [inhibitor, single point] | 
CCOc1ccc(NC(=O)CN2C(=O)NC3(CCCC3)C2=O)cc1S(=O)(=O)N1CCCCC1 | inconclusive: 7.08 µM [inhibitor, single point] | 
COc1cc(/C=N/N(C)C)ccc1OC(=O)c1cccs1 | inconclusive: 39.8 µM [inhibitor, partial curve, poor fit] | 
OCCNc1nc2ccc(Cl)cc2[nH]1 | inconclusive: 79.4 µM [inhibitor, partial curve, poor fit] | 
COc1ccc([N+](=O)[O-])cc1NC(=O)C(C)OC(=O)C1CC(=O)N(Cc2ccco2)C1 (centres undefined) |  | inactive: -27.4% [at 102 µM]
COc1ccc(CCNC(=O)c2c(O)c3ccccc3n(C)c2=O)cc1 |  | inactive: 7.43% [at 102 µM]
O=C(OCn1nnc2ccccc2c1=O)C1CCN(S(=O)(=O)c2cccs2)CC1 | inconclusive: 35.5 µM [inhibitor, single point] | 
Cc1ccc(-c2nnc(Nc3ccc(F)cc3)c3ccccc23)cc1S(=O)(=O)N1CCN(C)CC1 |  | inactive: -26.7%
COc1ccc(NC(=O)COC(=O)/C=C/C(=O)OCC(=O)Nc2ccc(OC)c(Cl)c2)cc1Cl | inconclusive: 8.91 µM [inhibitor, partial curve, poor fit] | 
CC(=O)Nc1ccc(N2C(=O)CC(Sc3nccc(C)n3)C2=O)cc1 (centres undefined) | inconclusive: 79.4 µM [inhibitor, single point] | 
C=C(Cl)COC(=O)[C@H]1C2C=CC(C2)C1C(=O)O (some centres undefined) | inconclusive: 50.1 µM [inhibitor, partial curve, poor fit] | 
COc1ccc(CN=C(C#N)C2=C(O)c3ccccc3C2=O)cc1 | active: 35.5 µM | 
c1ccc(C2CCC3(CC2)Oc2ccccc2C2CC(c4cccnc4)=NN23)cc1 (centres undefined) | inconclusive: 25.1 µM [inhibitor, single point] | 
CCC(C)NC(=O)CS(=O)Cc1nc(-c2cccc(C)c2)oc1C (centres undefined) | inconclusive: 89.1 µM [inhibitor, single point] | 
Cc1ccc2c(c1)c(CC(=O)Nc1ccc(F)cc1)c(C(=O)O)n2C | inconclusive: 89.1 µM [inhibitor, single point] | 
O=C(CN1CCN(C(=O)c2ccccc2)CC1)Nc1ccccc1 | inconclusive: 35.5 µM [inhibitor, full curve] | 
COc1ccccc1OCc1nc(C#N)c(NCc2ccc(C)cc2)o1 | active: 11.2 µM | 
Cc1ccccc1-c1nc(CN2CCC(C(=O)N3CCN(c4ccccn4)CC3)CC2)c(C)o1 | inconclusive: 89.1 µM [inhibitor, single point] | 
O=C(CN1CCCC1)Nc1nc(-c2ccc3c(c2)CCN3C(=O)c2ccccc2F)cs1 | inconclusive: 28.2 µM [inhibitor, partial curve, poor fit] | 
CC(C)C(C)NC(=O)COc1ccc(S(=O)(=O)N2CCOCC2)cc1[N+](=O)[O-] (centres undefined) | inconclusive: 1.12 µM [inhibitor, partial curve, poor fit] | 
COc1ccc(NCc2cc3cc4c(cc3n(CC(=O)Nc3ccc(C)c(C)c3)c2=O)OCO4)cc1 | inconclusive: 8.91 µM [inhibitor, partial curve] | 
O=C(Nc1ccc(CN2CCCCC2)cc1)c1ccc(Br)o1 | inconclusive: 2.82 µM [inhibitor, full curve, poor fit] | 
O=C(NC(Cc1ccccc1)c1nc2ccccc2[nH]1)c1cccc([N+](=O)[O-])c1 (centres undefined) |  | inconclusive: -66% [inhibitor]
